Read counts are not given, so values of variants with three or more changes are uncertain.
B1: LINE1-full (parent)
chain: UACGUAGGUGGUUUUCCCCUGAUAGUGCUAAGGGGGCCUGGAAGUUUGGACUGGGCAGAGCUCAACACAGCGUGGCAAAGUGGCUGUGGCUAGACUGCCUCUCUGGAUUCCUCGUCACUCAGCAGGGCAUCUCUGAGAGAAAUGCC

Variants of: B1
Assay: self-cleavage, relative activity (ratio to wild type); higher = more cleavage; in vitro, sequencing; the parent is a self-cleaving ribozyme

Row | Variant | self-cleavage
1 | A30G A69G U130C | 0
2 | A30G A64G A77G | 0
3 | U29C G60A A69G U132A | 0
4 | U29C U39C G74A A129G | 1.29
5 | A30G U39A U104A | 0.84
6 | A30G A42G U100A | 0
7 | A30U U87A A94G | 0.07
8 | A30G A64U U104C | 0.45
9 | A30G A78G A79G A129G A138G | 0
10 | A30U G83A U85C | 0.11
11 | U29C U46G A59G U87A | 0.68
12 | A30U C84U U87C A107U C131U | 0.01
13 | A30U G35A U52C U85C U119C C128U | 0.09
14 | A30U C71U U109A A136G | 1.18
15 | A30G U39A A69G | 1.08
16 | A30U A92G U104C A141G | 0
17 | A30G A67G C90A | 0.03
18 | A30U A69G U134C | 0.78
19 | A30G U96C A140G | 0.19
20 | A30U A31U A92U | 0.55
21 | U29G U85A U96C | 0.15

Row | Variant | self-cleavage
22 | U29C U115C C123U | 0.86
23 | A30G U85C U130A | 0.47
24 | A30U G53U U87A A117C A140G | 0
25 | A30G A57U C110U | 0.81
26 | A30G A57U U87A U104A | 0.08
27 | A30U A57G A69U | 0.15
28 | A30G A50G U73A | 1.13
29 | A30G A65U A141G | 0.57
30 | A30G U52A A65U | 0.26
31 | A30U A77U U104C A141G | 0.85
32 | U29C U47A A64U U108C A140G | 0.35
33 | A30G U45C G49A U102C | 0.74
34 | A30G U52C C90U U102C A117U C128U A140G | 0
35 | A30G U73A U102C A129G | 2.59
36 | A30G U108C A140G | 0
37 | A30G A64G U143C | 1.31
38 | U29C G114C U119C | 1.89
39 | U29G A69G U134A | 0.17
40 | A30G G58A U96C A117C A136G | 0.08
41 | A30G U102A C128U G144A | 1.12
42 | A30U A43U A50G | 0.3

Row | Variant | self-cleavage
43 | U29C U100C U102C U130A | 2.63
44 | U29G C116U A138G | 1.32
45 | U29G G49A U81A G114A A117C | 1.31
46 | A30U A78G A136G | 1.02
47 | A30U G40U G49A C103U A117G | 0.82
48 | A30U A31U A42G | 0.29
49 | A30G U62C G89A | 0
50 | A30U U85C U108C G144A | 0.22
51 | U29G U47C A141G | 1.87
52 | U29G A57U A77G | 0.42
53 | A30C U112G A117G G126A | 2.36
54 | A30G A64U A78U | 0.32
55 | A30G A77U U81C U85A | 0.45
56 | A30G U39C A124G | 0.38
57 | A30G A77G A79G | 1.53
58 | A30G U132C A141G | 1.53
59 | U29C U52C G53A A107G | 1.12
60 | A30U A43G U109C U130C | 0.34
61 | U29C U108C G139U | 1.12
62 | A30G U52C U96C | 0.89
63 | A30G U96C U112C A138G | 0

Row | Variant | self-cleavage
64 | U29C U39C U52A U119G G126A A136G | 0.92
65 | U29C U52A A69G | 0.45
66 | U29C U52C A67G A136G | 1.53
67 | A30G A31G U143A | 1.14
68 | A30U G32U A140U | 1.25
69 | A30G A57U A59U A77U U102A A124G | 0
70 | A30G C71U U73C | 0.71
71 | A30G A43U A140U | 1.29
72 | U29G A57G A124G | 0.46
73 | U29C U62C U73A | 0.03
74 | A30G U73C C84G | 0.44
75 | A30G A79G A136G | 0.92
76 | A30G U52C C90U | 0.05
77 | A30U G54A A59G A65G A79G | 0
78 | A30G U47C C71A | 1.44
79 | U29C U46C G139A | 1.12
80 | A30G U62C A121U | 0
81 | A30G U39C U112C A142G | 0
82 | A30G U52C U115C A142G | 0
83 | A30U A42G A69C | 0.08
84 | A30G A59G G126A A138G | 0.44

Reference: the RNAGym collection of RNA variant scans (doi:10.7554/elife.90254)
